Each structure is given as a SMILES string. About 550 (1.1%) of roughly 48,000 compounds were called active. Roughly 4% stayed inconclusive and do not appear here. Cut-off read from the data, not from the text of the source: active = potency below about 15 µM; inconclusive = mostly about 16 µM to 33 µM; inactive = weaker than that. Some of the results follow.
Potency is the fitted concentration of half-maximal effect.

Sequence of UniProt P04062 (P04062 whole entry, looked up): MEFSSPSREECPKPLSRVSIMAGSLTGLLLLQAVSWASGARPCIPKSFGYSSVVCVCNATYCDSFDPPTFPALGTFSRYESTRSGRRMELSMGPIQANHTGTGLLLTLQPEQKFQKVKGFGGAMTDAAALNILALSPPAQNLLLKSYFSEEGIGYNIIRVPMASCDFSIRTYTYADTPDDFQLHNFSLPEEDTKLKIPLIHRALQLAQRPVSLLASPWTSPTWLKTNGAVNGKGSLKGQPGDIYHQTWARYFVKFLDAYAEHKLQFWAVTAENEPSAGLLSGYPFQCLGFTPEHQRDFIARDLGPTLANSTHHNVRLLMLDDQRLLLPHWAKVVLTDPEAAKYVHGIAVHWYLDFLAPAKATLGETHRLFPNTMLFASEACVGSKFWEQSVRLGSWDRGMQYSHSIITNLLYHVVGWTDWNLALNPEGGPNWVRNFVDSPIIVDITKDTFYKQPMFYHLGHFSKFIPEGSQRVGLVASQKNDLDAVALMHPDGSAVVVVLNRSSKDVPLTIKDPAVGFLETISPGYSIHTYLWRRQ

The target of the assay is Lysosomal acid glucosylceramidase (Homo sapiens) (UniProt P04062). As to the kind of experiment: Glucocerebrosidase.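 Note: the screen sought inhibitors.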 To be noted: purified enzyme, resorufin glucoside fluorescence (screen aimed at inhibitors), 20 min; series mostly up to 77 µM. A digest of the protocol:
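Compounds titrated against 0.2 nM normal enzyme, 30 uM resorufin beta-D-glucopyranoside substrate, citrate/phosphate buffer with taurocholate and tween-20, pH 5.9. Reaction ran 20 min at room temperature; fluorescence (Ex 548/Em 600) gave AC50.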
Turning to `O=C(CC12CC3CC(CC(C3)C1)C2)NCC(=O)N1CCCC1`, the Potency is inactive: > 76.9 µM.
As for `Cc1ccc(C)c(NC(=O)CN(C)S(=O)(=O)c2ccc(F)cc2)c1`, the Potency is inactive: > 76.9 µM.
On to `O=C(CN1C(=O)C2C3C=CC(C3)C2C1=O)N1CCc2ccccc2C1` (stereo not drawn), for which the Potency is inactive: > 76.9 µM.
The figure for `CC1(C)Cc2c(c(-c3ccco3)nc3n[nH]c(N)c23)CO1` is inactive: > 76.9 µM; for `Cc1ccccc1-n1c(SC/C(O)=C(\C#N)c2nc3ccccc3[nH]2)nnc1-c1ccncc1` it is inactive: > 76.9 µM.
The figure for `O=C(CN1CCCC1)Nc1ccc(NC(=O)Nc2ccccc2Cl)cc1` is active: 12.7 µM; for `CCN(Cc1cc2cc(OC)ccc2[nH]c1=O)C(=O)c1ccncc1` it is inactive: > 76.9 µM; for `Cc1ccc(CN2C(=O)CCC2C(=O)NCCN2CCOCC2)cc1` (stereo not drawn) it is inactive: > 76.9 µM.
The figure for `COC(=O)c1ccccc1NC(=O)Cn1nc(C(F)(F)F)c2c1CCC2` is inactive: > 76.9 µM; for `CN(C)/C=N/c1sc2c(c1C#N)CCC2` it is inactive: > 76.9 µM.
Take `CC1CC(C)CN(C(=O)Cn2c(=O)n(CCCCC(=O)NCc3ccco3)c(=O)c3ccccc32)C1` (stereo not drawn): the Potency is inactive: > 76.9 µM.
Turning to `CCOC(=O)c1c(N)sn(-c2ccccc2C)c1=S`, the Potency is inactive: > 76.9 µM.
Take `CC(C)=C1C2C=CC1C(C(=O)Nc1cc(C)ccc1C)C2C(=O)O` (stereo not drawn): the Potency was inactive: > 76.9 µM.
The figure for `COc1cc(C2Nc3cc(Cl)c(S(N)(=O)=O)cc3S(=O)(=O)N2)cc(OC)c1OC` (stereo not drawn) is inactive: > 76.9 µM; for `CC(C)(C)NC(=O)NC(=O)COC(=O)CNC(=O)c1cccc(F)c1` it is inactive: > 76.9 µM.
In the case of `O=C(CSc1nnc(-c2ccc(F)cc2)o1)N1CCN(C(=O)c2ccco2)CC1`, the Potency was inactive: > 76.9 µM.
Take `O=C(O)CCC(NS(=O)(=O)c1ccc(N2CCCC2=O)cc1)C(=O)O` (stereo not drawn): the Potency is inactive: > 76.9 µM.
For `Cc1ccc(NC(=O)CC(O)(C(F)(F)F)C(F)(F)F)c(Br)c1`, the Potency is inactive: > 76.9 µM.
On to `Cc1ccc(CNC(=O)c2cc3c(=O)n4cccc(C)c4nc3n(CC3CCCO3)c2=N)cc1` (stereo not drawn), for which the Potency is inactive: > 76.9 µM.
Consider `O=C(Cc1cn2ccsc2n1)NCc1ccccc1`, for which the Potency was inactive: > 76.9 µM.
For the molecule `COc1ccc(CN(CC(=O)NC2CCCC2)C(=O)c2onc(C(N)=O)c2N)cc1`, the Potency was inactive: > 76.9 µM.
`CCOC(=O)c1oc2cc(OCC(N)=O)ccc2c(=O)c1-c1ccc(OC)c(OC)c1`: the Potency is inactive: > 76.9 µM.
The figure for `CC(C)(C)NC(=O)C(c1ccco1)N(C(=O)Cn1nnc(-c2ccc(F)cc2)n1)c1cccc(F)c1` (stereo not drawn) is inactive: > 76.9 µM; for `COC(=O)Nc1nnc(Cc2ccccc2)s1` it is inactive: > 76.9 µM; for `CCC(C(=O)NC1CCCC1)N(C(=O)Cn1nnc(-c2ccc(C)o2)n1)c1cnc2ccccc2c1` (stereo not drawn) it is inactive: > 76.9 µM.
As for `CCCOc1cc(C)c(S(=O)(=O)n2ccc(C)n2)cc1C`, the Potency is inactive: > 76.9 µM.
Take `CSc1nnc(-c2ccncc2)n1CCCN1CCCC1=O`: the Potency is inactive: > 76.9 µM.
In the case of `COc1ccccc1Cn1c(=O)c2ccccc2n2c(Sc3ncnc4sccc34)nnc12`, the Potency is inactive: > 76.9 µM.
On to `CC(C)CCn1c(SCC(=O)OCn2nnc3ccccc3c2=O)nc2ccccc2c1=O`, for which the Potency is inactive: > 76.9 µM.
In the case of `COc1cccc(C(C(=O)NC(C)(C)C)N(C(=O)CCC(=O)Nc2cc(C)on2)C(C)C)c1OC` (stereo not drawn), the Potency was inactive: > 76.9 µM.
`O=C1CSC(=O)N1CCOCCN1C(=O)CSC1=O`: the Potency was inactive: > 76.9 µM.
The figure for `O=C(COc1ccc(S(=O)(=O)N2CCCC2)cc1Cl)N1CCN(c2ccccc2)CC1` is inactive: > 76.9 µM.
Turning to `CC(C)OCCCNC(=O)C1CCN(S(=O)(=O)N2CCCCC2)CC1`, the Potency was inactive: > 76.9 µM.
Turning to `COc1ccc(C2c3c(-c4cc(Cl)c(C)cc4O)n[nH]c3C(=O)N2Cc2cccnc2)cc1OC` (stereo not drawn), the Potency is inactive: > 76.9 µM.
On to `CCN(CC)c1nc2nonc2nc1N(CC)CC`, for which the Potency was inactive: > 76.9 µM.
The figure for `O=c1[nH]c(C(F)(F)F)nc2c1nnn2Cc1ccccc1F` is inactive: > 76.9 µM.
The figure for `CCN(CC)CCCNc1cc2n(c(=O)n1)CCc1cc(OC)c(OC)cc1-2` is inactive: > 76.9 µM; for `O=C(NC1CCCCC1)c1sc(=S)n2c1[nH]c(=O)c1ccccc12` it is inactive: > 76.9 µM.
The figure for `COc1cc(C(=O)Nc2ccc(-n3cnnn3)c(C)c2)cc(OC)c1OC` is inactive: > 76.9 µM; for `CCn1c(COc2cccc(OC)c2)nnc1SCC(=O)Nc1cccc(OC)c1` it is inactive: > 76.9 µM; for `COc1ccccc1-c1noc(CCC(=O)Nc2cccc(C)c2)n1` it is inactive: > 76.9 µM.
Consider `CC1(C)Cc2noc(N)c2C(C)(C)N1OC(=O)c1ccccc1`, for which the Potency is inactive: > 76.9 µM.
As to `CC(=O)Nc1ccc(C2NC(=O)c3ccccc3O2)cc1` (stereo not drawn), the Potency was inactive: > 76.9 µM.
For `O=C(Nc1ccccc1C(F)(F)F)c1cc(S(=O)(=O)N2CCOCC2)ccc1F`, the Potency is inactive: > 76.9 µM.
Turning to `CN1/C(=C\C(=O)COc2ccc3c(c2)OCO3)C(C)(C)c2ccccc21`, the Potency is inactive: > 76.9 µM.
Consider `O=C(COC(=O)c1ccc2c(c1)OCCO2)NCCC1=CCCCC1`, for which the Potency is inactive: > 76.9 µM.
In the case of `COc1ccccc1N1C(=O)c2ccccc2NC1c1ccncc1` (stereo not drawn), the Potency is inactive: > 76.9 µM.
Consider `CC(NC(=O)CCNS(=O)(=O)c1ccc2c(c1)c(=O)n(C)c(=O)n2C)c1ccccc1` (stereo not drawn), for which the Potency was inactive: > 76.9 µM.
For the molecule `Cc1cccc(N2C(=O)C3C4C=CC(C4)C3C2=O)c1` (stereo not drawn), the Potency was inactive: > 76.9 µM.
For the molecule `CCCn1c(=O)n(C)c(=O)c2c(SCc3cc(C(C)=O)ccc3OCC)nc(C3CC3)nc21`, the Potency was inactive: > 76.9 µM.
Consider `CCn1cc(C(=O)N(CCCN2CCOCC2)Cc2ccco2)c(=O)c2ccc(C)nc21`, for which the Potency entry is “inactive”.
The figure for `CCC1(c2ccccc2)NC(=O)N(CC(=O)Nc2cccc(C#N)c2)C1=O` (stereo not drawn) is inactive: > 76.9 µM.
As to `O=c1cc(N2CCC(Cc3ccccc3)CC2)[nH]c(=O)n1C1CCCCC1`, the Potency was inactive: > 76.9 µM.
For the molecule `COC(=O)C(C(=O)NCC1CCCO1)C1CCCCCC1` (stereo not drawn), the Potency is inactive: > 76.9 µM.
For the molecule `CCOC(=O)N1CCN(C(=O)c2ccc(S(=O)(=O)c3ccc(C)cc3)c(NC(C)=O)c2)CC1`, the Potency is inactive: > 76.9 µM.
As for `CC(=O)c1nnn(-c2nc(N)nc(N(c3ccccc3)c3ccccc3)n2)c1C`, the Potency is inactive: > 76.9 µM.
For `Cc1nc2c(F)c(F)c(C(F)(F)F)c(F)c2[nH]1`, the Potency was inactive: > 76.9 µM.
For the molecule `O=C(NC1CCCCC1)C1CCN(c2nnnn2-c2ccccc2)CC1`, the Potency is inactive: > 76.9 µM.
On to `CC1CCCCN1C(=O)Cn1c(=O)n(C2CCCCC2)c(=O)c2ccccc21` (stereo not drawn), for which the Potency was inactive: > 76.9 µM.
Regarding `Cc1nnc(C)n1/N=C/c1ccc2c(c1)OCCO2`, the Potency is inactive: > 76.9 µM.
The figure for `O=C(CCC(=O)N1CCc2ccccc21)N1CCc2ccccc21` is inactive: > 76.9 µM; for `CCOCCCNC(=O)C(NC(=O)CNC(C)=O)c1ccc(Cl)cc1` (stereo not drawn) it is inactive: > 76.9 µM; for `CCc1ccccc1N(CC(=O)N1CCN(c2ccccc2F)CC1)S(C)(=O)=O` it is inactive: > 76.9 µM.
`CC1(C)CC(=O)c2c(-c3cccs3)n[nH]c2C1`: the Potency was inactive: > 76.9 µM.
As to `Cc1ccc(S(=O)(=O)Cn2nnnc2C(c2ccc(F)cc2)N2CCCCC2)cc1` (stereo not drawn), the Potency was inactive: > 76.9 µM.
For the molecule `Cc1ccc(Cn2ncc3c(N4CCCC4)ncnc32)cc1`, the Potency was inactive: > 76.9 µM.
Consider `CCCN(CCC)C1CC(=O)N(Cc2ccccc2)C1=O` (stereo not drawn), for which the Potency is inactive: > 76.9 µM.
For `O=C(O)c1ccccc1NC(=O)C1CCCO1` (stereo not drawn), the Potency is inactive: > 76.9 µM.
Turning to `COc1cc(C(=O)Nc2nccs2)c(Br)c(OC)c1OC`, the Potency was inactive: > 76.9 µM.
`COc1ccccc1Nc1nnc(SCC(=O)N2CCCC2)s1`: the Potency is inactive: > 76.9 µM.
Consider `COc1ccccc1C(=O)NCCCn1cc(Br)c(C)n1`, for which the Potency is inactive: > 76.9 µM.
For `Fc1cccc(Cl)c1Cn1nnc(-c2ccc3c(c2)OCO3)n1`, the Potency was inactive: > 76.9 µM.
For `O=C(NCc1cn2ccsc2n1)c1cccc(C(F)(F)F)c1`, the Potency was inactive: > 76.9 µM.
On to `Cc1cc(NS(=O)(=O)c2ccc(Br)s2)no1`, for which the Potency is inactive: > 76.9 µM.
The figure for `N#Cc1c(NC(=O)CSCC(=O)O)sc2c1CCCC2` is inactive: > 76.9 µM; for `O=C(Cc1ccc(-n2c(=O)[nH]c3ccccc3c2=O)cc1)N1CCN(c2ccccc2)CC1` it is inactive: > 76.9 µM.
The figure for `O=C(O)c1cccc(S(=O)(=O)Nc2ccc3c(c2)OCO3)c1` is inactive: > 76.9 µM; for `O=C(Nc1nc(-c2ccc(Cl)s2)cs1)c1cccs1` it is “inactive”.
Regarding `COc1ccc(OC)c(-c2cc(C(=O)Nc3c(C)nn(Cc4ccc(Cl)cc4)c3C)no2)c1`, the Potency is inactive: > 76.9 µM.
`O=C(Nc1ccc(F)cc1F)c1noc2c1CCC2`: the Potency was inactive: > 76.9 µM.
For `O=C(NC(C(=O)c1ccccc1)n1ccc(=O)[nH]c1=O)c1ccccc1` (stereo not drawn), the Potency was inactive: > 76.9 µM.
The figure for `CCOC(=O)N1CCN(S(=O)(=O)c2ccc(C(=O)Nc3nc4ccccc4s3)cc2)CC1` is inactive: > 76.9 µM.
In the case of `Cc1cc(C)c2nc(N3CCCC(C(=O)N4CCC(C(N)=O)CC4)C3)sc2c1` (stereo not drawn), the Potency was inactive: > 76.9 µM.
For the molecule `CC1CC(C)CN(c2ncc3c(n2)CC(c2ccc(Cl)cc2)CC3=O)C1` (stereo not drawn), the Potency was inactive: > 76.9 µM.
Regarding `CCN=C1SCC(=O)N1c1ccc(OC)cc1`, the Potency was inactive: > 76.9 µM.
As to `COC(=O)c1ccc2c(=O)sc(N3CCC(C(N)=O)CC3)nc2c1`, the Potency is inactive: > 76.9 µM.
Take `CCC(=O)Nc1cccc(NC(=O)c2cccnc2)c1`: the Potency is inactive: > 76.9 µM.
Regarding `O=C1C2C3C=CC(C3=C3CCCCC3)C2C(=O)N1c1ccccc1` (stereo not drawn), the Potency is inactive: > 76.9 µM.
